Experimental data reported in the supplement of paper PMC8285479.
Structures can show the parent of a compound that is named as a salt. ± gives the standard deviation of the averaged measurements. Whole data set: some 1,900 compounds, median “normalised cell viability (NPI; 0 = phenylarsine oxide control, 1 = DMSO control)” near 1, cut for the lowest 2% near 0.039. This is one part of the list.

System: NCI-H1944
Assay: normalised cell viability (NPI; 0 = phenylarsine oxide control, 1 = DMSO control) (fraction of DMSO control); NCI-H1944 is a non-small cell lung cancer line; higher = more viable cells (less compound toxicity)
Conditions: 6 days
[1] = glucocorticoid arm: hydrocortisone 2.75 uM co-treatment, compound 1 µM
[2] = glucocorticoid arm: hydrocortisone 2.75 uM co-treatment, compound 5 µM
[3] = glucocorticoid arm: hydrocortisone 2.75 uM pre-treated 2 days and continued, compound 1 µM
[4] = glucocorticoid arm: hydrocortisone 2.75 uM pre-treated 2 days and continued, compound 5 µM
[5] = glucocorticoid arm: vehicle, compound 1 µM
[6] = glucocorticoid arm: vehicle, compound 5 µM
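Note: CTB read-out in 384-well plates, mean of triplicate wells, normalised per plate against 1 µM phenylarsine oxide and 0.1% DMSO, compounds added 24 h after seeding.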

| Structure (SMILES) | normalised cell viability [1] | normalised cell viability [2] | normalised cell viability [3] | normalised cell viability [4] | normalised cell viability [5] | normalised cell viability [6] |
| --- | --- | --- | --- | --- | --- | --- |
| CCC1(C)CC(=O)NC1=O (stereo not drawn) [Ethosuximide] | 1 ± 0.012 | 1 ± 0.013 | 1.01 ± 0.013 | 1.01 ± 0.021 | 0.9903 ± 0.0087 | 0.989 ± 0.0061 |
| C[C@H](Nc1ncnc2nc[nH]c12)c1cc2cccc(Cl)c2c(=O)n1-c1ccccc1 | 0.828 ± 0.041 | 0.6173 ± 0.0059 | 0.87 ± 0.029 | 0.662 ± 0.072 | 0.938 ± 0.027 | 0.809 ± 0.017 |
| CC(C)[C@H](NC(=O)OCc1ccccc1)C(=O)N[C@H](C=O)Cc1ccccc1 | 0.989 ± 0.011 | 0.987 ± 0.041 | 0.997 ± 0.0052 | 1.03 ± 0.085 | 1 ± 0.0087 | 1 ± 0.013 |
| OC[C@H]1NC[C@@H](O)[C@@H]1O [1,4-Dideoxy-1,4-imino-D-arabinitol] | 0.9993 ± 0.0011 | 0.9807 ± 0.0015 | 0.997 ± 0.014 | 0.976 ± 0.027 | 1.002 ± 0.007 | 0.992 ± 0.012 |
| O=S(=O)(c1cccc2cnccc12)N1CCCNCC1 [Fasudil (HA-1077) HCl] | 0.99 ± 0.018 | 0.981 ± 0.027 | 1.02 ± 0.011 | 1.02 ± 0.02 | 1.001 ± 0.0085 | 1.01 ± 0.018 |
| COc1cc2nc(N3CCCN(C)CC3)nc(NC3CCN(Cc4ccccc4)CC3)c2cc1OC |  |  |  | 1.03 |  |  |
| CC(C)c1cnn2c(NCc3ccccc3)cc(NCCCCCCN)nc12 | 1.01 ± 0.015 | 1.03 ± 0.01 | 1.01 | 1.02 ± 0.011 | 1.01 ± 0.016 | 0.9977 ± 0.0025 |
| NC1CONC1=O (racemic) [DL-Cycloserine] | 0.993 ± 0.0046 | 0.979 ± 0.013 | 0.854 ± 0.22 | 0.9865 ± 0.0035 | 0.982 ± 0.013 | 0.9793 ± 0.0032 |
| CSc1nc(N)c2ncn([C@@H]3O[C@H](COP(=O)(O)OP(=O)(O)O)[C@@H](O)[C@H]3O)c2n1 [2-Methylthioadenosine diphosphate trisodium] | 1.007 ± 0.0058 | 1.02 ± 0.026 | 1.01 ± 0.012 | 1.06 ± 0.082 | 0.9917 ± 0.0072 | 1 ± 0.017 |
| N=c1nc(N2CCCCC2)cc(N)n1O [Minoxidil] | 1.02 ± 0.011 | 1.013 ± 0.0058 | 1.01 ± 0.024 | 0.993 ± 0.021 | 0.999 ± 0.0017 | 1.02 ± 0.015 |
| CCCCS(=N)(=O)CCC(N)C(=O)O [L-Buthionine-sulfoximine] | 1.01 | 1.02 ± 0.02 | 1 ± 0.017 | 1.01 ± 0.038 | 0.9963 ± 0.0055 | 1.02 ± 0.011 |
| COc1cccc(OC)c1OCCNCC1CSc2ccccc2O1 (stereo not drawn) [Benoxathian hydrochloride] | 0.9973 ± 0.0023 | 0.942 ± 0.013 | 1.007 ± 0.0058 | 1.005 ± 0.0071 | 0.9933 ± 0.0065 | 0.999 ± 0.01 |
| Cc1ccc(C(=O)c2cc(/C=C/C(=O)NO)n(C)c2)cc1 | 1 ± 0.022 | 1.02 ± 0.02 | 1 ± 0.021 | 1.02 ± 0.017 | 0.9928 ± 0.0048 | 0.995 ± 0.022 |
| CN(C[C@@H]1COCCO1)S(=O)(=O)Nc1ccc2ccc3ncc(-c4cnn(C)c4)cc3c(=O)c2c1 | 0.971 ± 0.025 | 0.743 ± 0.019 | 0.996 ± 0.0027 | 0.852 ± 0.0091 | 0.9847 ± 0.0055 | 0.849 ± 0.0076 |
| COc1cc(CNC(=O)CCCCCCC(C)C)ccc1O [Dihydrocapsaicin] | 1.007 ± 0.0058 | 1.02 ± 0.026 | 1.01 ± 0.013 | 1.04 ± 0.082 | 0.9943 ± 0.0067 | 1.006 ± 0.0075 |
| CC/C(=C(\c1ccccc1)c1ccc(OCCN(C)C)cc1)c1ccccc1 [Tamoxifen Citrate] | 0.9403 ± 0.0084 | 0.897 ± 0.017 | 0.9853 ± 0.0075 | 0.964 ± 0.05 | 0.9947 ± 0.0035 | 0.9973 ± 0.0025 |
| CC(C)(C)NCC(O)c1cc(O)cc(O)c1 (stereo not drawn) [Terbutaline hemisulfate] | 0.9973 ± 0.0046 | 1.02 ± 0.022 | 1.01 ± 0.024 | 0.988 ± 0.014 | 0.9923 ± 0.0038 | 0.9953 ± 0.0064 |

| Structure (SMILES) | normalised cell viability [1] | normalised cell viability [2] | normalised cell viability [3] | normalised cell viability [4] | normalised cell viability [5] | normalised cell viability [6] |
| --- | --- | --- | --- | --- | --- | --- |
| O=C(O)CCCCC1CCSS1 (racemic) [(±)-alpha-Lipoic Acid] | 1 ± 0.015 | 1.01 ± 0.027 | 1.02 ± 0.03 | 0.984 ± 0.015 | 1.003 ± 0.0058 | 1.01 ± 0.011 |
| CCOC(=O)[N-]c1c[n+](N2CCOCC2)no1 [Molsidomine] | 0.9947 ± 0.005 | 0.983 ± 0.012 | 0.998 ± 0.0035 | 1 ± 0.076 | 0.989 ± 0.0046 | 0.9937 ± 0.006 |
| CC[N+](CC)(CC)CCOc1cccc(OCC[N+](CC)(CC)CC)c1OCC[N+](CC)(CC)CC [Gallamine triethiodide] | 1.017 ± 0.0058 | 1.01 | 1.02 ± 0.011 | 1.023 ± 0.0058 | 1.007 ± 0.0058 | 1.013 ± 0.0058 |
| CC[N+](CC)(CC)CCOc1cccc(OCC[N+](CC)(CC)CC)c1OCC[N+](CC)(CC)CC [Gallamine Triethiodide] | 1.01 ± 0.021 | 1.027 ± 0.0058 | 1.02 ± 0.01 | 1.043 ± 0.0058 | 0.9957 ± 0.0035 | 1.003 ± 0.0058 |
| COc1cc2ncnc(Nc3ccc(F)c(Cl)c3)c2cc1OCCCN1CCOCC1 [Gefitinib (Iressa)] | 0.853 ± 0.023 | 0.776 ± 0.03 | 0.876 ± 0.035 | 0.8387 ± 0.0061 | 0.889 ± 0.024 | 0.785 ± 0.045 |
| COc1cc2ncnc(Nc3ccc(F)c(Cl)c3)c2cc1OCCCN1CCOCC1 [Gefitinib(Iressa); Gefitinib] | 0.9707 ± 0.0076 | 0.906 ± 0.013 | 0.98 ± 0.013 | 0.912 ± 0.011 | 0.9413 ± 0.0031 | 0.867 ± 0.014 |
| CN1CCN(c2nc(C3=C(c4c[nH]c5ccccc45)C(=O)NC3=O)c3ccccc3n2)CC1 [Sotrastaurin (AEB071)] | 1.027 ± 0.0058 | 1.11 ± 0.023 | 1.04 | 1.1 ± 0.01 | 1.007 ± 0.0058 | 1.027 ± 0.0058 |
| CN1CCC[C@@H]1CCO[C@](C)(c1ccccc1)c1ccc(Cl)cc1 [Clemastine Fumarate] | 0.962 ± 0.014 | 0.932 ± 0.025 | 0.968 ± 0.022 | 0.952 ± 0.012 | 0.9773 ± 0.0097 | 0.975 ± 0.01 |
| CN1CCC[C@@H]1CCO[C@](C)(c1ccccc1)c1ccc(Cl)cc1 [Clemastine fumarate] | 1.01 | 0.919 ± 0.011 | 1.01 ± 0.01 | 1 ± 0.05 | 1.001 ± 0.0081 | 0.98 ± 0.03 |
| O=C(c1ccc(OCCCc2c[nH]cn2)cc1)C1CC1 [Ciproxifan] | 1.05 ± 0.017 | 1.077 ± 0.0058 | 1.023 ± 0.0058 | 1.03 ± 0.02 | 1.027 ± 0.0058 | 1.01 ± 0.01 |
| CN(CC[C@@H](Oc1ccc(C(F)(F)F)cc1)c1ccccc1)CC(=O)[O-].[Li+] | 0.992 ± 0.0046 | 0.989 ± 0.011 | 0.99 ± 0.014 | 0.998 ± 0.018 | 0.979 ± 0.016 | 0.9777 ± 0.0035 |
| COC(=O)[C@]12CCC(C)(C)C[C@H]1[C@H]1C(=O)C=C3[C@@]4(C)C=C(C#N)C(=O)C(C)(C)[C@@H]4CC[C@@]3(C)[C@]1(C)CC2 [Bardoxolone Methyl] | 0.00114 ± 0.00058 | 1.08 ± 0.01 | 0.00366 ± 0.0014 | 1.1 ± 0.015 | 0.00138 ± 0.00077 | 0.858 ± 0.022 |
| O=C(O)c1cccnc1C(=O)O [Quinolinic acid] | 0.9833 ± 0.0093 | 0.946 ± 0.017 | 0.877 ± 0.2 | 0.994 ± 0.017 | 0.9823 ± 0.004 | 0.984 ± 0.0027 |
| Nc1nc2[nH]cc(CCc3ccc(C(=O)N[C@@H](CCC(=O)O)C(=O)O)cc3)c2c(=O)[nH]1 [Pemetrexed; Pemetrexed Disodium] | 0.931 ± 0.018 | 1.07 ± 0.01 | 0.934 ± 0.006 | 1.04 ± 0.017 | 0.898 ± 0.013 | 1 ± 0.012 |
| CCN1CCN(Cc2ccc(Nc3ncc(F)c(-c4cc(F)c5nc(C)n(C(C)C)c5c4)n3)nc2)CC1 | 0.493 ± 0.041 | 0.312 ± 0.06 | 0.528 ± 0.03 | 0.599 ± 0.14 | 0.252 ± 0.028 | 0.000109 ± 0.00093 |
| COCCc1ccc(OCC(O)CNC(C)C)cc1 (stereo not drawn) [Metoprolol Tartrate] | 0.992 ± 0.018 | 0.916 ± 0.016 | 0.9933 ± 0.007 | 0.9383 ± 0.0075 | 0.977 ± 0.013 | 1.007 ± 0.0058 |
